Some of the results follow. The list includes weakly bound sequences.

For this assay, the target named is T1, MBP-FoxP3dN (UniProt Q99JB6).
T1 sequence: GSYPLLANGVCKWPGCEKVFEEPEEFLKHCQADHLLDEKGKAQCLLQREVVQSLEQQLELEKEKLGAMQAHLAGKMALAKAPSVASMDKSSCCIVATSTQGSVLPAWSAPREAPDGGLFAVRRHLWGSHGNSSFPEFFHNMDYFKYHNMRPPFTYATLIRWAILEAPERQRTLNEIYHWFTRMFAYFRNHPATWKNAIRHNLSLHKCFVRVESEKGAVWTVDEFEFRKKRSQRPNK
Put plainly: PD-seq (MBP pull-down with sequencing). The conditions noted are these: 20 mM Tris-HCl pH 7.5, 100 mM NaCl, 1.5 mM MgCl2, 0.4 uM protein, 0.1 uM dsDNA library, 30 min, room temperature, amylose pull-down; high values mean tight binding; double strand, one strand shown.
For the sequence “GATGATTGTTCTCCCAGCTGATGAATTAAACGACTCGAGTAAACAAATTTTCCTAATCTTTCTGTTCAAGCGCCATCTAC”, the binding signal (RPM ratio (pull-down/input)) was determined as 0.58.
On to “GATGATTGTTCTCCCAGCTGATGAATTGGCTTCCTCGAGTAAACAAATTTTCCTAATCTTTCTGTTCAAGCGCCATCTAC”, for which the binding signal (RPM ratio (pull-down/input)) came to 0.562.
For the sequence “GATGATTGTTCTCCCAGCTGATGAATTGGACGAGTCGAGTAAACAAATTTTCCTAATCTTTCTGTTCAAGCGCCATCTAC”, the binding signal (RPM ratio (pull-down/input)) turned out to be 0.201.
Turning to “GATGATTGTTCTCCCAGCTGATGAATTGCAAAATTCGAGTAAACAAATTTTCCTAATCTTTCTGTTCAAGCGCCATCTAC”, the binding signal (RPM ratio (pull-down/input)) came out at 0.636.
As to “GATGATTGTTCTCCCAGCTGATGAATTATGAGCTTCGAGTAAACAAATTTTCCTAATCTTTCTGTTCAAGCGCCATCTAC”, the binding signal (RPM ratio (pull-down/input)) is 0.477.
The same measure for “GATGATTGTTCTCCCAGCTGATGAATTCCACACATCGAGTAAACAAATTTTCCTAATCTTTCTGTTCAAGCGCCATCTAC”: 0.467; for “GATGATTGTTCTCCCAGCTGATGAATTAAAACTCTCGAGTAAACAAATTTTCCTAATCTTTCTGTTCAAGCGCCATCTAC”: 0.292; for “GATGATTGTTCTCCCAGCTGATGAATTCCATTTATCGAGTAAACAAATTTTCCTAATCTTTCTGTTCAAGCGCCATCTAC”: 1.46.
With “GATGATTGTTCTCCCAGCTGATGAATTTGCCGCCTCGAGTAAACAAATTTTCCTAATCTTTCTGTTCAAGCGCCATCTAC”, the binding signal (RPM ratio (pull-down/input)) is 0.88.
The figure for “GATGATTGTTCTCCCAGCTGATGAATTCAGAAAATCGAGTAAACAAATTTTCCTAATCTTTCTGTTCAAGCGCCATCTAC” is 0.141; for “GATGATTGTTCTCCCAGCTGATGAATTTCCTTCGTCGAGTAAACAAATTTTCCTAATCTTTCTGTTCAAGCGCCATCTAC” it is 0.292; for “GATGATTGTTCTCCCAGCTGATGAATTCCCTTGCTCGAGTAAACAAATTTTCCTAATCTTTCTGTTCAAGCGCCATCTAC” it is 0.309.
The same measure for “GATGATTGTTCTCCCAGCTGATGAATTCGCGGACTCGAGTAAACAAATTTTCCTAATCTTTCTGTTCAAGCGCCATCTAC”: 0.309; for “GATGATTGTTCTCCCAGCTGATGAATTATCTAACTCGAGTAAACAAATTTTCCTAATCTTTCTGTTCAAGCGCCATCTAC”: 0.288; for “GATGATTGTTCTCCCAGCTGATGAATTGAATGCTTCGAGTAAACAAATTTTCCTAATCTTTCTGTTCAAGCGCCATCTAC”: 1.23.
The same measure for “GATGATTGTTCTCCCAGCTGATGAATTAGTAAATTCGAGTAAACAAATTTTCCTAATCTTTCTGTTCAAGCGCCATCTAC”: 0.68.
Take “GATGATTGTTCTCCCAGCTGATGAATTTAGGCCTTCGAGTAAACAAATTTTCCTAATCTTTCTGTTCAAGCGCCATCTAC”: the binding signal (RPM ratio (pull-down/input)) turned out to be 1.79.
With “GATGATTGTTCTCCCAGCTGATGAATTAATGCTGTCGAGTAAACAAATTTTCCTAATCTTTCTGTTCAAGCGCCATCTAC”, the binding signal (RPM ratio (pull-down/input)) turned out to be 1.3.
The figure for “GATGATTGTTCTCCCAGCTGATGAATTTCATATCTCGAGTAAACAAATTTTCCTAATCTTTCTGTTCAAGCGCCATCTAC” is 0.703; for “GATGATTGTTCTCCCAGCTGATGAATTTTTAATATCGAGTAAACAAATTTTCCTAATCTTTCTGTTCAAGCGCCATCTAC” it is 0.411; for “GATGATTGTTCTCCCAGCTGATGAATTGATATTGTCGAGTAAACAAATTTTCCTAATCTTTCTGTTCAAGCGCCATCTAC” it is 1.34.
As to “GATGATTGTTCTCCCAGCTGATGAATTCCCGCCTTCGAGTAAACAAATTTTCCTAATCTTTCTGTTCAAGCGCCATCTAC”, the binding signal (RPM ratio (pull-down/input)) stood at 2.93.
For “GATGATTGTTCTCCCAGCTGATGAATTTGATCTCTCGAGTAAACAAATTTTCCTAATCTTTCTGTTCAAGCGCCATCTAC”, the binding signal (RPM ratio (pull-down/input)) was 0.421.
“GATGATTGTTCTCCCAGCTGATGAATTTAATATGTCGAGTAAACAAATTTTCCTAATCTTTCTGTTCAAGCGCCATCTAC”: the binding signal (RPM ratio (pull-down/input)) is 3.01.
Consider “GATGATTGTTCTCCCAGCTGATGAATTCAGTGTCTCGAGTAAACAAATTTTCCTAATCTTTCTGTTCAAGCGCCATCTAC”, for which the binding signal (RPM ratio (pull-down/input)) is 1.84.
The figure for “GATGATTGTTCTCCCAGCTGATGAATTCAGTAATTCGAGTAAACAAATTTTCCTAATCTTTCTGTTCAAGCGCCATCTAC” is 0.97; for “GATGATTGTTCTCCCAGCTGATGAATTATTGGTGTCGAGTAAACAAATTTTCCTAATCTTTCTGTTCAAGCGCCATCTAC” it is 1.45.
For “GATGATTGTTCTCCCAGCTGATGAATTACACGGCTCGAGTAAACAAATTTTCCTAATCTTTCTGTTCAAGCGCCATCTAC”, the binding signal (RPM ratio (pull-down/input)) is 0.332.
The same measure for “GATGATTGTTCTCCCAGCTGATGAATTACACACTTCGAGTAAACAAATTTTCCTAATCTTTCTGTTCAAGCGCCATCTAC”: 0.651; for “GATGATTGTTCTCCCAGCTGATGAATTACGGCTATCGAGTAAACAAATTTTCCTAATCTTTCTGTTCAAGCGCCATCTAC”: 0.705; for “GATGATTGTTCTCCCAGCTGATGAATTTGCCGTTTCGAGTAAACAAATTTTCCTAATCTTTCTGTTCAAGCGCCATCTAC”: 1.25.
The same measure for “GATGATTGTTCTCCCAGCTGATGAATTCAAGGCCTCGAGTAAACAAATTTTCCTAATCTTTCTGTTCAAGCGCCATCTAC”: 0.358; for “GATGATTGTTCTCCCAGCTGATGAATTTCTGTAATCGAGTAAACAAATTTTCCTAATCTTTCTGTTCAAGCGCCATCTAC”: 0.663; for “GATGATTGTTCTCCCAGCTGATGAATTCTCAACTTCGAGTAAACAAATTTTCCTAATCTTTCTGTTCAAGCGCCATCTAC”: 0.258.
The figure for “GATGATTGTTCTCCCAGCTGATGAATTCACTTAGTCGAGTAAACAAATTTTCCTAATCTTTCTGTTCAAGCGCCATCTAC” is 0.333; for “GATGATTGTTCTCCCAGCTGATGAATTACCGGGGTCGAGTAAACAAATTTTCCTAATCTTTCTGTTCAAGCGCCATCTAC” it is 0.219.
As for “GATGATTGTTCTCCCAGCTGATGAATTCTAAGGTTCGAGTAAACAAATTTTCCTAATCTTTCTGTTCAAGCGCCATCTAC”, the binding signal (RPM ratio (pull-down/input)) worked out at 0.256.
The figure for “GATGATTGTTCTCCCAGCTGATGAATTGCGTTATTCGAGTAAACAAATTTTCCTAATCTTTCTGTTCAAGCGCCATCTAC” is 2.84.
The same measure for “GATGATTGTTCTCCCAGCTGATGAATTAACCACTTCGAGTAAACAAATTTTCCTAATCTTTCTGTTCAAGCGCCATCTAC”: 0.297.
The figure for “GATGATTGTTCTCCCAGCTGATGAATTTTGGTAATCGAGTAAACAAATTTTCCTAATCTTTCTGTTCAAGCGCCATCTAC” is 0.815.
